# Source: a collection of fitness landscapes (doi:10.1016/j.celrep.2020.107928)
# In all, about 81,000 sequences were measured (“one-hybrid fitness for binding parS DNA”: median about -0.17, highest 2% from about 0.51 on). The list shows a part of the results.
# B1: Caulobacter ParB omega fusion; a variant is named by its letters at X, in order, B8GW30 (parent)
# chain: MESVVVGEPGMSEGRRGLGRGLSALLGEVDAAPAQAPGEQLGGSREAPIEILQRNPDQPRRTFREEDLEDLSNSIREKGVLQPILVRPSPDTAGEYQIVAGERAWRAAQRAGLKTVPIMVRELDDLAVLEIGIIENVQRADLNVLEEALSYKVLMEKFERTQENIAQTIGKSXSHVANXMRLLXLPDEVQSYLVSGELTAXHARAIAAAADPVALAKQIIEGGLSVRETEALARKAPNLSAGKSKGGRPPRVKDTDTQALESDLSSVLGLDVSIDHRGSTGTLTITYATLEQLDDLCNRLTRGI
# Variants of: B1
# Assay: one-hybrid fitness for binding parS DNA (scaled: cognate 1, non-cognate 0); higher = stronger binding
# Conditions: with parS DNA site
# Method in brief: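 Fitness is the rescaled log change in variant-to-wild-type read ratio, measured by Illumina sequencing of plasmids before and after bacterial one-hybrid selection. The scale puts cognate at 1 and non-cognate at 0. Selection of Caulobacter ParB libraries, four specificity codons randomised, took place in E. coli USO with a HIS3 reporter, site 19 bp from the promoter, over 48 hours at 37°C on M9-minus-histidine with 0.1 mM IPTG and 5 mM 3-AT.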
row,Variant,one-hybrid fitness for binding parS DNA
1,RFTG,0.977
2,EDSG,≤ 0.2
3,DLAF,≤ 0.2
4,AMDC,≤ 0.2
5,NMCS,≤ 0.2
6,RTLE,≤ 0.2
7,QVHG,≤ 0.2
8,QLNH,≤ 0.2
9,DMQG,≤ 0.2
10,TKDA,≤ 0.2
11,NPTN,≤ 0.2
12,RYEI,≤ 0.2
13,VKAS,≤ 0.2
14,HVIG,≤ 0.2
15,GNAF,≤ 0.2
16,RIPD,≤ 0.2
17,CWVC,≤ 0.2
18,PRYT,≤ 0.2
19,HTLM,≤ 0.2
20,ELME,≤ 0.2
21,QQKY,≤ 0.2
22,RQNI,≤ 0.2
23,HWTV,≤ 0.2
24,VSKL,≤ 0.2

row,Variant,one-hybrid fitness for binding parS DNA
1,SPWC,≤ 0.2
2,RPPI,≤ 0.2
3,ECAG,≤ 0.2
4,ASFM,≤ 0.2
5,YACR,≤ 0.2
6,PELT,≤ 0.2
7,TPGK,≤ 0.2
8,HQSE,≤ 0.2
9,RADE,≤ 0.2
10,LCLT,≤ 0.2
11,LVRA,≤ 0.2
12,IIMW,≤ 0.2
13,LVID,≤ 0.2
14,QAST,≤ 0.2
15,HEMR,≤ 0.2
16,LVVR,≤ 0.2
17,PPCP,≤ 0.2
18,RSDY,0.352
19,SHNT,≤ 0.2
20,SILC,≤ 0.2
21,RFVH,≤ 0.2
22,PDPN,≤ 0.2
23,GPWS,≤ 0.2
24,GQDS,≤ 0.2

row,Variant,one-hybrid fitness for binding parS DNA
1,CHPR,≤ 0.2
2,HSGP,≤ 0.2
3,QRDS,≤ 0.2
4,SMSW,≤ 0.2
5,ITSS,≤ 0.2
6,NNSC,≤ 0.2
7,DKNS,≤ 0.2
8,HLQP,≤ 0.2
9,KANA,≤ 0.2
10,IFPM,≤ 0.2
11,GQWC,≤ 0.2
12,LAVK,≤ 0.2
13,DSFI,≤ 0.2
14,GASV,≤ 0.2
15,NDMR,≤ 0.2
16,DELM,≤ 0.2
17,FSVV,≤ 0.2
18,CANG,≤ 0.2
19,LFRV,≤ 0.2
20,QRHI,≤ 0.2
21,DKHC,≤ 0.2
22,SRCF,≤ 0.2
23,GCLM,≤ 0.2
24,QLFS,≤ 0.2

row,Variant,one-hybrid fitness for binding parS DNA
1,VLQW,≤ 0.2
2,MDYV,≤ 0.2
3,HAID,≤ 0.2
4,YYAS,≤ 0.2
5,RKLP,≤ 0.2
6,DNLW,≤ 0.2
7,ITDT,≤ 0.2
8,ASQM,≤ 0.2
9,MFNR,≤ 0.2
10,ISPE,≤ 0.2
11,YVHY,≤ 0.2
12,NFMS,≤ 0.2
13,ALGS,≤ 0.2
14,AVDI,≤ 0.2
15,GLDV,≤ 0.2
16,RDTN,≤ 0.2
17,HHDK,≤ 0.2
18,MWRC,≤ 0.2
19,EYLC,≤ 0.2
20,VMWS,≤ 0.2
21,HVLT,≤ 0.2
22,RWAC,0.721
23,VHRT,≤ 0.2
24,YTFS,≤ 0.2

row,Variant,one-hybrid fitness for binding parS DNA
1,QYPP,≤ 0.2
2,YTIR,≤ 0.2
3,QMRH,≤ 0.2
4,RAQD,≤ 0.2
5,PGPK,≤ 0.2
6,IEAL,≤ 0.2
7,WMHT,≤ 0.2
8,QGRT,≤ 0.2
9,SSDY,≤ 0.2
10,LNYF,≤ 0.2
11,KRWK,≤ 0.2
12,LIIE,≤ 0.2
13,WIIC,≤ 0.2
14,SHQT,≤ 0.2
15,PPAI,≤ 0.2
16,TATQ,≤ 0.2
17,CQQR,≤ 0.2
18,PARC,≤ 0.2
19,QSCR,≤ 0.2
20,EMQR,≤ 0.2
21,CYST,≤ 0.2
22,ATLN,≤ 0.2
23,CNCY,≤ 0.2
24,DPPY,≤ 0.2

row,Variant,one-hybrid fitness for binding parS DNA
1,WTWC,≤ 0.2
2,FQTK,≤ 0.2
3,ADQC,≤ 0.2
4,NRYA,≤ 0.2
5,ESHK,≤ 0.2
6,EING,≤ 0.2
7,VVER,≤ 0.2
8,PETN,≤ 0.2
9,LDTI,≤ 0.2
10,GLFN,≤ 0.2
11,SADC,≤ 0.2
12,RHYA,0.562
13,LPKA,≤ 0.2
14,PEPR,≤ 0.2
15,VSET,≤ 0.2
16,QPAS,≤ 0.2
17,KCRY,≤ 0.2
18,RCTG,1.02
19,EAPS,≤ 0.2
20,MHFS,≤ 0.2
21,GMNS,≤ 0.2
22,GHVQ,≤ 0.2
23,LMPC,≤ 0.2
24,GMSW,≤ 0.2

row,Variant,one-hybrid fitness for binding parS DNA
1,LDYC,≤ 0.2
2,ALEF,≤ 0.2
3,RYVQ,≤ 0.2
4,PAHG,≤ 0.2
5,VFES,0.227
6,MMVR,≤ 0.2
7,RNVP,≤ 0.2
8,EYSK,≤ 0.2
9,QDHQ,≤ 0.2
10,VQTM,≤ 0.2
11,TDGG,≤ 0.2
12,SNTF,≤ 0.2
13,IRVA,≤ 0.2
14,WMTL,≤ 0.2
15,QIQR,≤ 0.2
16,DTHC,≤ 0.2
17,LLWG,≤ 0.2
18,KAAT,≤ 0.2
19,MEPF,≤ 0.2
20,VSTS,≤ 0.2
21,EMER,≤ 0.2
22,TSKA,≤ 0.2
23,IDAR,≤ 0.2
24,CALV,≤ 0.2

row,Variant,one-hybrid fitness for binding parS DNA
1,MPCI,≤ 0.2
2,TAAC,≤ 0.2
3,PCMY,≤ 0.2
4,AEIG,≤ 0.2
5,LRNF,≤ 0.2
6,AYWC,≤ 0.2
7,IHGV,≤ 0.2
8,NFPA,≤ 0.2
9,TGES,≤ 0.2
10,MLPR,≤ 0.2
11,RCWE,≤ 0.2
12,AKKR,≤ 0.2
13,NIVP,≤ 0.2
14,PYVY,≤ 0.2
15,ELIR,≤ 0.2
16,CSKR,≤ 0.2
17,YRVE,≤ 0.2
18,AYSY,≤ 0.2
19,IIGR,≤ 0.2
20,DGRG,≤ 0.2
21,ISAD,≤ 0.2
22,MANS,≤ 0.2
23,QRHT,≤ 0.2
24,KLTK,≤ 0.2

row,Variant,one-hybrid fitness for binding parS DNA
1,LQQC,≤ 0.2
2,RRCF,≤ 0.2
3,QSEF,≤ 0.2
4,CTDL,≤ 0.2
5,KWSH,≤ 0.2
6,LMAV,≤ 0.2
7,LRGE,≤ 0.2
8,CNWR,≤ 0.2
9,HAFM,≤ 0.2
10,ELDG,≤ 0.2
11,NKDW,≤ 0.2
12,QVQL,≤ 0.2
13,PECS,≤ 0.2
14,DVQT,≤ 0.2
15,ELGT,≤ 0.2
16,PSSP,≤ 0.2
17,LPDA,≤ 0.2
18,RLTQ,≤ 0.2
19,SHMY,≤ 0.2
20,LPKM,≤ 0.2
21,KTTD,≤ 0.2
22,MVTC,≤ 0.2
23,TVDF,≤ 0.2
24,SRNR,≤ 0.2

row,Variant,one-hybrid fitness for binding parS DNA
1,LAHL,≤ 0.2
2,LYTP,≤ 0.2
3,PHPF,≤ 0.2
4,EHLC,≤ 0.2
5,AWTG,≤ 0.2
6,HAFC,≤ 0.2
7,RHHI,≤ 0.2
8,RHTV,≤ 0.2
9,TGQW,≤ 0.2
10,HCNR,≤ 0.2
11,LNAT,≤ 0.2
12,KINS,≤ 0.2
13,QWEV,≤ 0.2
14,MTIG,≤ 0.2
15,QPRL,≤ 0.2
16,REPM,≤ 0.2
17,EGTC,≤ 0.2
18,YPDC,≤ 0.2
19,ILGW,≤ 0.2
20,AINF,≤ 0.2
21,KAKN,≤ 0.2
22,HMST,≤ 0.2
23,RLKR,≤ 0.2
24,VFKT,≤ 0.2

row,Variant,one-hybrid fitness for binding parS DNA
1,WFNC,0.25
2,PSGF,≤ 0.2
3,YCVS,≤ 0.2
4,LMTY,≤ 0.2
5,WCLW,≤ 0.2
6,IYEG,≤ 0.2
7,LIEG,≤ 0.2
8,KCAV,≤ 0.2
9,VISV,≤ 0.2
10,GMQY,≤ 0.2
11,AGFG,≤ 0.2
12,QKKK,≤ 0.2
13,DIRC,≤ 0.2
14,YTED,≤ 0.2
15,QARY,≤ 0.2
16,THRE,≤ 0.2
17,MHAG,≤ 0.2
18,RAQC,0.987
19,VYAV,≤ 0.2
20,VQSR,≤ 0.2
21,YIAT,≤ 0.2
22,RIDW,≤ 0.2
23,SVRS,≤ 0.2
24,GTDI,≤ 0.2

row,Variant,one-hybrid fitness for binding parS DNA
1,WLLP,≤ 0.2
2,ELYK,≤ 0.2
3,SQAV,≤ 0.2
4,QKSC,≤ 0.2
5,AHLQ,≤ 0.2
6,MCIS,≤ 0.2
7,PHEV,≤ 0.2
8,TSPM,≤ 0.2
9,FMDG,≤ 0.2
10,WVEH,≤ 0.2
11,RYAW,≤ 0.2
12,TEPR,≤ 0.2
13,YQHR,≤ 0.2
14,AGHF,≤ 0.2
15,RPEH,≤ 0.2
16,PHKN,≤ 0.2
17,HLLR,≤ 0.2
18,LTHD,≤ 0.2
19,GSPV,≤ 0.2
20,RACM,0.328
21,FSLR,≤ 0.2
22,SIPK,≤ 0.2
23,HTMT,≤ 0.2
24,ETNI,≤ 0.2

row,Variant,one-hybrid fitness for binding parS DNA
1,QFCF,≤ 0.2
2,PTWH,≤ 0.2
3,RRFN,0.314
4,TNTY,≤ 0.2
5,LMRS,≤ 0.2
6,SQLT,≤ 0.2
7,IPGR,≤ 0.2
8,NHPS,≤ 0.2
9,AVRA,≤ 0.2
10,LPEP,≤ 0.2
11,TDAR,≤ 0.2
12,QEVG,≤ 0.2
13,PFPM,≤ 0.2
14,SCHP,≤ 0.2
15,HRLH,≤ 0.2
16,CSHE,≤ 0.2
17,NFML,≤ 0.2
18,PLYA,≤ 0.2
